Laboratory results published in PMC4336329 (PLoS ONE, 2015).
The campaign covered roughly 310,000 compounds. About 14,000 (4.5%) showed an effect of 50% or more. The effect is printed as a negative number. The list shows a part of the results.

biological target: human ether-à-go-go-related gene (hERG) potassium channel (human, UniProt Q12809); assay: primary screen, population patch clamp on CHO cells stably expressing hERG
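Also: peak tail current of the secondary pulse compared with the same well before compound.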

human ether-à-go-go-related gene (hERG) potassium channel, sequence (Q12809 whole entry, looked up): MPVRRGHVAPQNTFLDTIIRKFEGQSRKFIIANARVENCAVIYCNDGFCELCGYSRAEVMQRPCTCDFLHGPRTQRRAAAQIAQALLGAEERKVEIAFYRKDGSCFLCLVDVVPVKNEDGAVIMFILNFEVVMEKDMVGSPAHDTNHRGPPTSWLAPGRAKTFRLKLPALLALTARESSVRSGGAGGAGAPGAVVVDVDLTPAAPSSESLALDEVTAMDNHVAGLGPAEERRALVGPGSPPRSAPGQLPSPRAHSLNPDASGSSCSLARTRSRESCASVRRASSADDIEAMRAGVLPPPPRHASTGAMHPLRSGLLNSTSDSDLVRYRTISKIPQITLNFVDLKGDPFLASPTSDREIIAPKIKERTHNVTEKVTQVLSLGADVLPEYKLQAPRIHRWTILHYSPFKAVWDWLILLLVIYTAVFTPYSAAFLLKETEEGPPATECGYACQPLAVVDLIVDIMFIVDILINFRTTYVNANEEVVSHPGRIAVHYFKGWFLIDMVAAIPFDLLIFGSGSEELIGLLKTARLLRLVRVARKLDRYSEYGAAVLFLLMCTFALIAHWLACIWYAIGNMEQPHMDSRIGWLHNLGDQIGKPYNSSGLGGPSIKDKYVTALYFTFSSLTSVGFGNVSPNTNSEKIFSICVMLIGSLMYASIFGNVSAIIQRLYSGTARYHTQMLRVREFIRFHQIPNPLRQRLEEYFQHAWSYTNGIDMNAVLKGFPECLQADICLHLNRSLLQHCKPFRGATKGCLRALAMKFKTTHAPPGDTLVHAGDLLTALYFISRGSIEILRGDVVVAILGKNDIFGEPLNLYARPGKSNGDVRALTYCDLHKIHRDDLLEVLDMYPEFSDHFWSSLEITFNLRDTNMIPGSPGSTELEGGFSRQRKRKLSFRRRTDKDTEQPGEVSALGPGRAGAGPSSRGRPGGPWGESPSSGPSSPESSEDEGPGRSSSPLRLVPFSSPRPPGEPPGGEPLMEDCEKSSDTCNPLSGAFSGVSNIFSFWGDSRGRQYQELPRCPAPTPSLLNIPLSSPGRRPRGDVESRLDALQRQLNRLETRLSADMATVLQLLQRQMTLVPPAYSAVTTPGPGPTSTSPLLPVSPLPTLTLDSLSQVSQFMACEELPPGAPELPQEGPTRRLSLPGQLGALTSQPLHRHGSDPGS

SMILES | hERG current change (%, negative = inhibition) at 10uM [%]
Cc1ccc(C(=O)NNC(=O)C2CCN(C(=O)OC(C)(C)C)CC2)cc1 | 12.4
CC(C)=CCc1c([C@@H]2CCc3ccc(O)cc3O2)cc2c(c1O)OC(C)(C)C=C2 | 18.1
Cn1c2ccccc2c2nnc(SCC(=O)NC3CC3)nc21 | 21
CCc1ccccc1NC(=S)N(CCN(C)C)C(C)c1ccco1 (centres unmarked) | -16.5
CCCCN(CCCC)Cc1ccc(C(=O)NNC(=O)Nc2ccc(Cl)cc2)o1 | -33.4
COCCC(=O)N1CCC(C(=O)Nc2ccc(Oc3ccccc3)nc2)CC1 | 17.6
Cn1nccc1NC(=O)CC1(CC(=O)O)CCCCC1 | 3.64
CCOC(=O)N1CCC(NC(=O)Cn2ncc3ccccc32)CC1 | 5.84
CCCCCCCCCCCCN1C/C(=C\C(=O)OCC)c2cc(C(F)(F)F)ccc2S1(=O)=O | 6.83
O=C(COC(=O)Cn1nnc2ccccc21)Nc1ccccc1Br | -1.61
C=CSc1sc(Cl)c(N2CCOCC2)c1[N+](=O)[O-] | 0.0524
CC(C)(C)NC(=S)/N=C(\N)N[N+](=O)[O-] | 9.75
CCCCCCNC(=O)Nc1ccccc1 | 2.08
COc1ccc(S(=O)(=O)NCCC(=O)NC2CCCCCCC2)cc1 | -21.4
O=C1CC(c2ccccc2)CN1 (centres unmarked) | 17.1
O=C(CC1CC2CCC1C2)NC1CCCCCCC1 (centres unmarked) | -9.41
CC(C)n1nc(C(=O)Nc2nnc(SCc3c(Cl)cccc3Cl)s2)c2ccccc2c1=O | -5.58
CC(C)N(Cc1cc2ccccc2[nH]c1=O)C(=O)c1cccnc1 | -21.7
O=C(OCc1nnc(-c2ccc(Cl)cc2)o1)C12CC3CC(CC(O)(C3)C1)C2 | -7.27
COc1ccc(NS(=O)(=O)c2ccc(C)c(NC(=O)CN3C(=O)NC4(CCCC4)C3=O)c2)cc1 | -37.8

SMILES | hERG current change (%, negative = inhibition) at 10uM [%]
CC(=O)Nc1cc(C(=O)N2CCc3ccccc3C2)ccc1Sc1ccc(F)cc1 | -55.4
Cc1ccc(OCC(O)CN2CCOCC2)cc1 (centres unmarked) | 8.2
Cc1ccc(S(=O)(=O)NCCSc2nnnn2-c2ccccc2)cc1 | -24.1
CCCc1nnc(NC(=O)CCC(=O)Nc2ccc(Br)cc2)s1 | 19
Cc1nn(C)cc1/C=N\NC(=O)c1ccc2c(c1)c(C)c(C)n2Cc1ccccc1 | 15.9
N#Cc1cc(Sc2ccccn2)c([N+](=O)[O-])cc1C#N | -18.9
O=c1c(-c2ccc(O)cc2)coc2c([C@@H]3O[C@H](CO)[C@@H](O)[C@H](O)[C@H]3O)c(O)ccc12 | 31.1
COc1ccccc1NC(=O)c1nn(-c2ccccc2)ccc1=O | 0.691
CCCCc1n[nH]c2c1/C(=N/O)CC(c1ccccc1)C2 (centres unmarked) | 8.46
COC(=O)C1=C(C)NC(=O)CC1c1cccc(Cl)c1Cl (centres unmarked) | -4.94
O=C(O)C1C2C=CC(C2)C1C(=O)NCCCN1CCCC1=O (centres unmarked) | 9.28
COc1ccccc1CNC(=O)C1CC(c2ccccc2C(F)(F)F)=NO1 (centres unmarked) | -3.54
O=C(NCc1ccccc1CN1CCCCC1)c1ccccc1N1CCCC1=O | -5.29
O=c1[nH]c(CN2CCN(CCO)CC2)nc2ccccc12 | 21.5
Cn1c(O)c(C=NCCN2CCOCC2)c(=O)[nH]c1=S | 9.47
Cn1cnc2cc(NC(=O)c3ccco3)ccc21 | 25
CC(C)(C)C(O)/C=C/c1ccc2c(c1)OCO2 (centres unmarked) | 3.22
CCOC(=O)CN(C(=O)CSc1nnc(-c2ccc(OC)c(OC)c2)o1)c1ccc(F)cc1 | -49.6
Cc1ccccc1-n1c(=O)n(Cc2ccco2)c(=O)c2[nH]cnc21 | 15.6
COCCCNC(=O)/C(C#N)=C/c1cccc(NC(=O)c2ccccc2Cl)c1 | 4.62

SMILES | hERG current change (%, negative = inhibition) at 10uM [%]
Cc1cccc(CNC(=O)c2ccc3c(c2)N(C)CCS3)c1 | -59.4
Cc1nn(Cc2ccc(Cl)cc2Cl)c(C)c1NC(=O)c1ccc(COc2cc(Cl)ccc2Cl)o1 | 8.69
CN(C(=O)c1cccn(Cc2ccccc2)c1=O)c1ccccc1 | 13.3
CC(C)COc1ccc(/C(=N/O)c2ccccc2)cc1 | 11
O=C1CC(=O)N(CCNc2ncc(C(F)(F)F)cc2Cl)C(=O)N1 | 11.9
CCC1S/C(=N/C(=O)NC2CCCCC2)NC1=O (centres unmarked) | 17.1
CN(C)C(CNC(=O)CCNC(=O)c1ccc(Br)cc1)c1ccco1 (centres unmarked) | -12.6
O=C(Nc1nnc(-c2ccc(Cl)cc2)o1)c1ccc(N2C(=O)CCC2=O)cc1 | 12.9
O=C(c1cc(-c2cccs2)on1)N1CCOCC1 | -9.61
O=S(=O)(c1ccccc1)N1CCN(c2ccccc2)CC1 | 12
NS(=O)(=O)c1ccc(CCNC(=O)CN2C(=O)c3ccccc3S2(=O)=O)cc1 | 1.3
COc1cc(NC(=O)CCNC(=O)Cn2cnc3ccccc3c2=O)cc(OC)c1OC | 8.38
O=C(c1ccco1)N1CCN(C2CC(=O)N(c3ccc(F)c(Cl)c3)C2=O)CC1 (centres unmarked) | -14.2
c1ccc2[nH]c(N3CCOCC3)nc2c1 | 8.82
CC(C)CCNc1nc2ccccc2nc1NS(=O)(=O)c1cccs1 | 5.76
CC1CCC2(CC1)NC(=O)N(CC(=O)NCCc1c[nH]c3ccccc13)C2=O (centres unmarked) | -19.6
Cc1cccc(C(=O)OC(C)C(=O)N2CCc3ccccc3C2)c1C (centres unmarked) | -33.6
Cc1ccc(S(=O)(=O)c2nc(-c3ccc(F)cc3)oc2N2CCOCC2)cc1 | -45.3
CCN(C(=O)Cn1ccc(C(F)(F)F)n1)c1c(N)n(Cc2ccccc2)c(=O)[nH]c1=O | -5.89
